# Data from the supplement of paper PMC8728848.
# The other results are listed elsewhere or left out.
# B1: MGL6A (Homo sapiens) (protein)
# chain: MTRTYENFQYLENKVKVQGFKNGPLPLQSLLQRLCSGPCHLLLSLGLGLLLLVIICVVGFQNSKFQRDLVTLRTDFSNFTSNTVAEIQALTSQGSSLEETIASLKAEVEGFKQERQAVHSEMLLRVQQLVQDLKKLTCQVATLNNNGEEASTEGTCCPVNWVEHQDSCYWFSHSGMSWAEAEKYCQLKNAHLVVINSREEQNFVQKYLGSAYTWMGLSDPEGAWKWVDGTDYATGFQNWKPGQPDDWQGHGLGGGEDCAHFHPDGRWNDDVCQRPYHWVCEAGLGQTSQESH
# Columns and labels:
# Assay in all cases: glycan array binding signal (z-score within array); higher = stronger binding
# Conditions in all cases: glycan notation: IUPAC condensed, linker removed
# [1] = biological target: Neu5Ac(a2-6)Gal(b1-4)GlcNAc(b1-3)Gal(b1-4)[Fuc(a1-3)]GlcNAc(b1-3)Gal(b1-4)[Fuc(a1-3)]GlcNAc
# Outline: (§1)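 Columns mapping to the same glycan were averaged after glycan names were converted to IUPAC-condensed notation. The data come from 3228 arrays in the Consortium for Functional Glycomics database, limited to those with an available protein sequence. Binding is reported as a within-array Z-score averaged across arrays of one protein sequence and across linkers.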
# [2] = biological target: Neu5Ac(a2-6)Gal(b1-4)GlcNAc(b1-3)GalNAc
# Outline: as §1
# [3] = biological target: Neu5Ac(a2-6)Gal(b1-4)GlcNAc(b1-3)[Neu5Ac(a2-6)Gal(b1-4)GlcNAc(b1-6)]GalNAc
# Outline: as §1
# [4] = biological target: Neu5Ac(a2-6)Gal(b1-4)GlcNAc(b1-6)GalNAc
# Outline: as §1
# [5] = biological target: Neu5Ac(a2-6)Gal(b1-4)GlcNAc(b1-6)[Gal(b1-3)GlcNAc(b1-3)]Gal(b1-4)Glc
# Outline: as §1
# [6] = biological target: Neu5Ac(a2-6)Gal(b1-4)GlcNAc(b1-6)[Gal(b1-3)]GalNAc
# Outline: as §1
# [7] = biological target: Neu5Ac(a2-6)Gal(b1-4)GlcNAc6S
# Outline: as §1
# Neu5Ac(a2-6)GalNAc = biological target: Neu5Ac(a2-6)GalNAc
# Outline: as §1
# [8] = biological target: Neu5Ac(a2-6)GalNAc(b1-4)GlcNAc
# Outline: as §1
# [9] = biological target: Neu5Ac(a2-6)GalNAc(b1-4)GlcNAc6S
# Outline: as §1
# [10] = biological target: Neu5Ac(a2-6)GlcNAc(b1-4)GlcNAc
# Outline: as §1
# [11] = biological target: Neu5Ac(a2-6)GlcNAc(b1-4)GlcNAc(b1-4)GlcNAc
# Outline: as §1
# Neu5Ac(a2-8)Neu5Ac = biological target: Neu5Ac(a2-8)Neu5Ac
# Outline: as §1
# [12] = biological target: Neu5Ac(a2-8)Neu5Ac(a2-3)Gal(b1-3)GalNAc(b1-4)[Neu5Ac(a2-3)]Gal(b1-4)Glc
# Outline: as §1
# [13] = biological target: Neu5Ac(a2-8)Neu5Ac(a2-3)Gal(b1-3)GalNAc(b1-4)[Neu5Ac(a2-8)Neu5Ac(a2-3)]Gal(b1-4)Glc
# Outline: as §1
# [14] = biological target: Neu5Ac(a2-8)Neu5Ac(a2-3)Gal(b1-4)Glc
# Outline: as §1
# [15] = biological target: Neu5Ac(a2-8)Neu5Ac(a2-3)Gal(b1-4)GlcNAc
# Outline: as §1
# [16] = biological target: Neu5Ac(a2-8)Neu5Ac(a2-3)[Gal(b1-3)GalNAc(b1-4)]Gal(b1-4)Glc
# Outline: as §1
# [17] = biological target: Neu5Ac(a2-8)Neu5Ac(a2-3)[GalNAc(b1-4)]Gal(b1-4)Glc
# Outline: as §1
# [18] = biological target: Neu5Ac(a2-8)Neu5Ac(a2-8)Neu5Ac
# Outline: as §1
# [19] = biological target: Neu5Ac(a2-8)Neu5Ac(a2-8)Neu5Ac(a2-3)Gal(b1-4)Glc
# Outline: as §1
# [20] = biological target: Neu5Ac(a2-8)Neu5Ac(a2-8)Neu5Ac(a2-3)[Gal(b1-3)GalNAc(b1-4)]Gal(b1-4)Glc
# Outline: as §1
# [21] = biological target: Neu5Ac(a2-8)Neu5Ac(a2-8)Neu5Ac(a2-3)[GalNAc(b1-4)]Gal(b1-4)Glc
# Outline: as §1
# [22] = biological target: Neu5Ac(a2-8)Neu5Ac(a2-8)Neu5Ac(a2-8)Neu5Ac(a2-3)[GalNAc(b1-4)]Gal(b1-4)Glc
# Outline: as §1
# [23] = biological target: Neu5Ac(a2-8)Neu5Gc(a2-3)Gal(b1-4)GlcNAc
# Outline: as §1
# [24] = biological target: Neu5Ac(b2-6)Gal(b1-4)GlcNAc
# Outline: as §1
# Neu5Ac(b2-6)GalNAc = biological target: Neu5Ac(b2-6)GalNAc
# Outline: as §1
# [25] = biological target: Neu5Ac9Ac(a2-3)Gal(b1-3)GlcNAc
# Outline: as §1
# [26] = biological target: Neu5Ac9Ac(a2-3)Gal(b1-4)GlcNAc
# Outline: as §1
# [27] = biological target: Neu5Ac9Ac(a2-6)Gal(b1-4)GlcNAc
# Outline: as §1
# [28] = biological target: Neu5Gc(a2-3)Gal(b1-3)GlcNAc
# Outline: as §1
# [29] = biological target: Neu5Gc(a2-3)Gal(b1-3)[Fuc(a1-4)]GlcNAc
# Outline: as §1
# Neu5Gc(a2-3)Gal(b1-4)Glc = biological target: Neu5Gc(a2-3)Gal(b1-4)Glc
# Outline: as §1
# [30] = biological target: Neu5Gc(a2-3)Gal(b1-4)GlcNAc
# Outline: as §1
# [31] = biological target: Neu5Gc(a2-3)Gal(b1-4)GlcNAc(b1-3)Gal(b1-4)GlcNAc(b1-2)Man(a1-3)[Neu5Gc(a2-3)Gal(b1-4)GlcNAc(b1-3)Gal(b1-4)GlcNAc(b1-2)Man(a1-6)]Man(b1-4)GlcNAc(b1-4)GlcNAc
# Outline: as §1
# [32] = biological target: Neu5Gc(a2-3)Gal(b1-4)[Fuc(a1-3)]GlcNAc
# Outline: as §1
# [33] = biological target: Neu5Gc(a2-6)Gal(b1-4)GlcNAc
# Outline: as §1
# Neu5Gc(a2-6)GalNAc = biological target: Neu5Gc(a2-6)GalNAc
# Outline: as §1
# [34] = biological target: Neu5Gc(a2-8)Neu5Ac(a2-3)Gal(b1-4)GlcNAc
# Outline: as §1
# [35] = biological target: Neu5Gc(a2-8)Neu5Gc(a2-3)Gal(b1-4)GlcNAc
# Outline: as §1
# [36] = biological target: Neu5Gc(a2-8)Neu5Gc(a2-3)Gal(b1-4)GlcNAc(b1-3)Gal(b1-4)GlcNAc
# Outline: as §1
# [37] = biological target: Neu5Gc(a2-8)Neu5Gc(a2-6)Gal(b1-4)GlcNAc
# Outline: as §1
# [38] = biological target: Neu5Gc(b2-6)Gal(b1-4)GlcNAc
# Outline: as §1
binder,measurement,setting,value
B1,glycan array binding signal (z-score),[1],-0.295
same,glycan array binding signal (z-score),[2],-0.189
same,glycan array binding signal (z-score),[3],-0.214
same,glycan array binding signal (z-score),[4],-0.237
same,glycan array binding signal (z-score),[5],-0.27
same,glycan array binding signal (z-score),[6],-0.264
same,glycan array binding signal (z-score),[7],-0.292
same,glycan array binding signal (z-score),Neu5Ac(a2-6)GalNAc,1.56
same,glycan array binding signal (z-score),[8],1.56
same,glycan array binding signal (z-score),[9],0.124
same,glycan array binding signal (z-score),[10],-0.154
same,glycan array binding signal (z-score),[11],-0.189
same,glycan array binding signal (z-score),Neu5Ac(a2-8)Neu5Ac,-0.274
same,glycan array binding signal (z-score),[12],-0.254
same,glycan array binding signal (z-score),[13],-0.251
same,glycan array binding signal (z-score),[14],-0.293
same,glycan array binding signal (z-score),[15],-0.265
same,glycan array binding signal (z-score),[16],0.481
same,glycan array binding signal (z-score),[17],2.18
same,glycan array binding signal (z-score),[18],-0.282
same,glycan array binding signal (z-score),[19],-0.295
same,glycan array binding signal (z-score),[20],-0.251
same,glycan array binding signal (z-score),[21],2.87
same,glycan array binding signal (z-score),[22],3.22
same,glycan array binding signal (z-score),[23],-0.271
same,glycan array binding signal (z-score),[24],-0.277
same,glycan array binding signal (z-score),Neu5Ac(b2-6)GalNAc,-0.24
same,glycan array binding signal (z-score),[25],-0.341
same,glycan array binding signal (z-score),[26],-0.292
same,glycan array binding signal (z-score),[27],-0.277
same,glycan array binding signal (z-score),[28],-0.256
same,glycan array binding signal (z-score),[29],-0.288
same,glycan array binding signal (z-score),Neu5Gc(a2-3)Gal(b1-4)Glc,-0.288
same,glycan array binding signal (z-score),[30],-0.228
same,glycan array binding signal (z-score),[31],-0.258
same,glycan array binding signal (z-score),[32],-0.224
same,glycan array binding signal (z-score),[33],-0.101
same,glycan array binding signal (z-score),Neu5Gc(a2-6)GalNAc,0.148
same,glycan array binding signal (z-score),[34],-0.273
same,glycan array binding signal (z-score),[35],-0.266
same,glycan array binding signal (z-score),[36],-0.26
same,glycan array binding signal (z-score),[37],-0.245
same,glycan array binding signal (z-score),[38],-0.274
